The other results are listed elsewhere or left out. Repeats are few or missing, and single values can be far off.
Tests used:
Assay in all cases: cell count relative to DMSO control; melanoma cells; higher = more viable cells
Conditions in all cases: library dose: low library concentration; 72 h
WM115 = tested on: WM115
WM1716 = tested on: WM1716
WM1745 = tested on: WM1745
WM3526 = tested on: WM3526
WM3619 = tested on: WM3619
WM451Lu = tested on: WM451Lu
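Further: cell number obtained by counting DAPI-stained nuclei in high-throughput microscope images with image analysis software, screen run in 1,536-well plates.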

For `CCCCCCCCc1ccc(CCC(N)(CO)CO)cc1` [fingolimod] + CC1(C)NC(=O)N(c2ccc([N+](=O)[O-])c(C(F)(F)F)c2)C1=O [nilutamide] (first compound 2 µM, partner dose 1 µM), the cell count (WM115) was 112%, the cell count (WM1716) was 99.4% and the cell count (WM1745) was 75.2%. The cell count (WM3526) was 88%, the cell count (WM3619) was 86.8% and the cell count (WM451Lu) was 85.7%.
`CCCCCCCCc1ccc(CCC(N)(CO)CO)cc1` [fingolimod] + N#Cc1c(O)c2c(-c3ccc(-c4ccccc4O)cc3)csc2[nH]c1=O [A769662] (first compound 2 µM, partner dose 2 µM) gave a cell count (WM115) of 89.2%, a cell count (WM1716) of 65.2% and a cell count (WM1745) of 64.7%. It also gave a cell count (WM3526) of 84%, a cell count (WM3619) of 64.8% and a cell count (WM451Lu) of 95.9%.
With `NC(=O)c1ccc(N(C(N)=O)c2c(F)cccc2F)nc1-c1ccc(F)cc1F` + CS(=O)(=O)CCNCc1ccc(-c2ccc3ncnc(Nc4ccc(OCc5cccc(F)c5)c(Cl)c4)c3c2)o1 [lapatinib] (first compound 0.4 µM, partner dose 0.8 µM) the cell count (WM115) was 88.6%, the cell count (WM1716) was 101% and the cell count (WM1745) was 93.6%. The cell count (WM3526) was 100%, the cell count (WM3619) was 120% and the cell count (WM451Lu) was 89%.
Compound `CN(NC(=O)CC(=O)NN(C)C(=S)c1ccccc1)C(=S)c1ccccc1` + COc1cc2ncnc(Nc3ccc(Oc4ccccc4)cc3)c2cc1OC [SrcI1] (first compound 0.006 µM, partner dose 2 µM) has a cell count (WM115) of 86%, a cell count (WM1716) of 73.7% and a cell count (WM1745) of 50.4%. It also gave a cell count (WM3526) of 101%, a cell count (WM3619) of 22.9% and a cell count (WM451Lu) of 106%.
`COc1cc2c(Oc3ccc4[nH]c(C)cc4c3F)ncnc2cc1OCCCN1CCCC1` [cediranib] + COc1ccc(COc2ccc(Cc3cnc(N)nc3N)cc2OC)cc1 [GW2580] (first compound 0.4 µM, partner dose 1 µM) was tested, and the cell count (WM115) was 95%, the cell count (WM1716) was 92.8% and the cell count (WM1745) was 94.4%. It also gave a cell count (WM3526) of 94.7%, a cell count (WM3619) of 115% and a cell count (WM451Lu) of 117%.
`CCc1ccc(CCOc2ccc(CC3SC(=O)NC3=O)cc2)nc1` (configuration not stated) [pioglitazone] + O=C1NC(=O)/C(=C/c2ccc(-c3ccc(F)cc3O)o2)S1 [AS252424] (first compound 2 µM, partner dose 1 µM) gave a cell count (WM115) of 89.6%, a cell count (WM1716) of 92.6% and a cell count (WM1745) of 86.3%. For the same compound, the cell count (WM3526) was 71.9%, the cell count (WM3619) was 100% and the cell count (WM451Lu) was 114%.
`NC(=O)c1ccc(N(C(N)=O)c2c(F)cccc2F)nc1-c1ccc(F)cc1F` + C[C@]1(O)C[C@@H](c2nc(-c3ccc4ccc(-c5ccccc5)nc4c3)c3c(N)nccn32)C1 [OSI906] (first compound 0.4 µM, partner dose 0.4 µM) showed a cell count (WM115) of 97.9%, a cell count (WM1716) of 112% and a cell count (WM1745) of 64.5%. The cell count (WM3526) was 89.4%, the cell count (WM3619) was 79.1% and the cell count (WM451Lu) was 101%.
Work on `NC(=O)c1ccc(N(C(N)=O)c2c(F)cccc2F)nc1-c1ccc(F)cc1F` + Nc1ncn([C@H]2C[C@H](O)[C@@H](CO)O2)c(=O)n1 [decitabine] (first compound 0.4 µM, partner dose 0.1 µM) yielded a cell count (WM115) of 91.6%, a cell count (WM1716) of 89.5% and a cell count (WM1745) of 84.6%. The cell count (WM3526) was 99.9%, the cell count (WM3619) was 77.8% and the cell count (WM451Lu) was 103%.
With `Cc1ccc(NC(=O)c2cccc(N(C)C)c2)cc1NC(=O)c1ccc(O)cc1` + O=C(Nc1ccccc1)c1cc([N+](=O)[O-])ccc1Cl [GW9662] (first compound 2 µM, partner dose 2 µM) the cell count (WM115) was 95.3%, the cell count (WM1716) was 110% and the cell count (WM1745) was 80.3%. It also gave a cell count (WM3526) of 84.7%, a cell count (WM3619) of 84.8% and a cell count (WM451Lu) of 74.2%.
Compound `Cc1ccc(NC(=O)c2cccc(N(C)C)c2)cc1NC(=O)c1ccc(O)cc1` + OCCn1cc(-c2cnc3nnn(Cc4ccc5ncccc5c4)c3n2)cn1 [PF04217903] (first compound 2 µM, partner dose 1 µM) has a cell count (WM115) of 90.2%, a cell count (WM1716) of 91% and a cell count (WM1745) of 80.4%. For the same compound, the cell count (WM3526) was 93.2%, the cell count (WM3619) was 105% and the cell count (WM451Lu) was 128%.
In the case of `CN(NC(=O)CC(=O)NN(C)C(=S)c1ccccc1)C(=S)c1ccccc1` + Cc1cc([N+](=O)[O-])ccc1NS(=O)(=O)c1cc(Cl)ccc1Cl [FH535] (first compound 0.006 µM, partner dose 1 µM), the cell count (WM115) is reported as 88.2%, the cell count (WM1716) is reported as 75.1% and the cell count (WM1745) is reported as 35%. It also gave a cell count (WM3526) of 116%, a cell count (WM3619) of 38.5% and a cell count (WM451Lu) of 121%.
`NC(=O)c1ccc(N(C(N)=O)c2c(F)cccc2F)nc1-c1ccc(F)cc1F` + CC(=O)O[C@@]12CO[C@@H]1C[C@H](O)[C@@]1(C)C(=O)[C@H](O)C3=C(C)[C@@H](OC(=O)[C@H](O)[C@@H](NC(=O)OC(C)(C)C)c4ccccc4)C[C@@](O)([C@@H](OC(=O)c4ccccc4)[C@H]21)C3(C)C [Docetaxel] (first compound 0.4 µM, partner dose 0.0001 µM) showed a cell count (WM115) of 78.3%, a cell count (WM1716) of 63.3% and a cell count (WM1745) of 58.9%. For the same compound, the cell count (WM3526) was 44.6%, the cell count (WM3619) was 62.3% and the cell count (WM451Lu) was 66.1%.

Source: the supplement of paper PMC4604168 (melanoma cell lines)
